Sequences and labels used below:
B1: LINE1-full (parent)
chain: UACGUAGGUGGUUUUCCCCUGAUAGUGCUAAGGGGGCCUGGAAGUUUGGACUGGGCAGAGCUCAACACAGCGUGGCAAAGUGGCUGUGGCUAGACUGCCUCUCUGGAUUCCUCGUCACUCAGCAGGGCAUCUCUGAGAGAAAUGCC

The source gives no read counts; variants with many changes may rest on few reads.

The variants in this data set derive from B1. In words: self-cleavage, relative activity (ratio to wild type); higher = more cleavage; in vitro, sequencing; the parent is a self-cleaving ribozyme.
Take UACGUUGGUGGUCUUCCCCUGAUAGUGCUAAGGGGGCCAGGAAGUUUGGACUGGGCAGAGCUCAACACAGCGUGGCAAGGUGGCUGUGGCUAGACUGCCUCUCUGGAUUCCUCGUCACUCAGCAGGGCAUUUCUGAGAGAAAUGCC [A6U U13C U39A A79G C131U]: the self-cleavage was 0.66.
For UACGUAAGUGGUUUUCCCCUGAUAGUGCUAAGGGGGCCUGGAAGUUUGGACUGGGCAGAGCUCAACGCAGCGUGGCAAGGUGGCUGUGGCUAGACUGCCUCUCUGGAUUCCUCGUCACUCAGCAGGGCAUCUCUGAGUGAAUAGCC [G7A A67G A79G A138U A142U U143A] the value was 0.18; for UACGUUGGUGGUUUUCCCCUGAUAGUGCUAAGGGGGCCUGGAAGCUUGGACUGGGCAGAGCUCAACACAGCUUGGCAAAGUGGCUGUGGCUAGACGGCCUCUCUGGAUUCCUCGUCACUCAGCAGGGCAUCUCUGAGAGAAAUGCC [A6U U45C G72U U96G], 0.
In the case of UACGUUGGUGGUUUUCCCCUGAUAGUGCUAAGGGGGCCAGGAAGUUUGGACUGGGCAGAGCUCAACACAGCGUGGCAAAGUGGCUGUGGCUAGACUGCCUCUCUGGACUCCUCGUCACUCAGCAGGGCAUCUCUGAGAGAAAUGCC [A6U U39A U108C], the self-cleavage is 1.41.
On to UACGUAAGUGGUUUCCCCCUGAUAGUGCUAAGGGGGCCUGGAAGUUCGGACUGGGCAGAGCUCAACACAGCGUGGCAAAGUGGCUGUGGCUAGACUGCCUCUCUGGAUUCCUCGUCUCUCAGCAGGGCAUCUCUGAGAGAAAUGCC [G7A U15C U47C A117U], for which the self-cleavage was determined as 0.99.
Take UACGUAAGUGGUUUUCCCCUGAUAGUGCUAAGGGGGCCUGGAAGUUUGGACUGGGCAGAGCUCAACUCAGCGUGGCAAAGUGGCUGUGGCUAGACUGCCUCUCUGGAUUCCUCGUCUCUCAGCAGGGCAUCUCUGAGAGAAAUGCC [G7A A67U A117U]: the self-cleavage is 0.09.
For the variant UACGUUGGUGGUCUUCCCCUGAUAGUGCUAAGGGGGCCUGGAAGUUUGGACUGGGCAGAGCUCAACACAGCGUGGCAAAGAGGCUGUGGCUAGACUGCCUCUCUGGAUUCCUCGUCACUCAGCAGGGCAUCUCUGAGAGAAAUGCC [A6U U13C U81A], the self-cleavage is 1.17.
Consider UACGUUGGUGGUUUUCCCCUGAUAGUGCUAAGGGGGCCCGGAAGUUUGGACUGGGCAGAGCUCAACAUAGCGUGGCAAAGUGGCUGUGGCUUGACUGCCUCUCUGGAUUCCUCGUCACUCAGCAGGGCAUCUCUGAGAGAAAUGCC [A6U U39C C68U A92U], for which the self-cleavage was found to be 0.12.
Turning to UACGUAAGUGGUUUUCCCCUGAUAGUGCUAAGGGGGCCUGGAAGUUUGGGCUGGGCAGAGCUCAACACAGCGUGGCGAAGUGGCUGUGGCUAGACUGCCUCUCUGGAUUCCUCGUCACUCAGCAGGGCAUCUCUGAGAGAAAUGCC [G7A A50G A77G], the self-cleavage was found to be 0.
As to UACGUAAGUGGUUUUCCCCUGAUAGUGCUAAGGGGGCCUAGAAGUUUGGACUGGGCAGAGCUCAACACAGCGUGGCAAAGUGGCUGUGGCUAGACCGCCUCUCUGGAUUCCUCGUCGCCCAGCAGGGCAUCUCUGAGAGAAACGCC [G7A G40A U96C A117G U119C U143C], the self-cleavage turned out to be 0.
For UACGUUGGUGGUUUUCCCCUGAUAGUGCCAAGGGGGCCUGGAAGUUUGGACUGGGCAGAGCUCAACACAGCGUGGCAAAGUGGCUGUGGCUAGACUGCCUCUCUGGAUUCCUCGUCACUCAGCAGGGCAUCUCUGAGAGAGAUGCC [A6U U29C A141G] the value was 0.97; for UACGUUGGUGGUUUUCCCCUGAUAGUGCUAAGGGGGCCUGGAAGCUUGGACUGGGCAGUGCUCAACACAGCGUGGCAAAGUGGCUGUGGCUAGACUGCCUCUCUGGAUUCCUCGUCACUCAGCAGGGCAUCUCUGAGAGAAAUGCC [A6U U45C A59U], 0.21.
In the case of UACGUUGGUGGUUUCCCCCUGAUAGUGCUAAGGGGGCCUGAAAGUUUGGACUGGGCAGAGCUCAACACAGCGUGGCAGAGUGGCUGUGGCUAGACUGCCUCUCUGGAUUCCUCGUCACUCAGCAGGGCAUCUCUGAGAGAAAUGCC [A6U U15C G41A A78G], the self-cleavage was 1.64.
UACGUAAGUGGUCUUCCCCUGAUAGUGCUAAGGGGGCCUGGAAGUUUGGGCUGGGCUGAGCUCAACACAGCGUGGCAAAGUGGCUGUCGCUAGACUGCCUCUCUGGAUUCCUCGCCACACAGCAGGGCAUCUCUGAGAGAAAUGCC [G7A U13C A50G A57U G88C U115C U119A]: the self-cleavage was determined as 0.
For UACGUAAGUGGUUUUCCCCUGAUAGUGCUAAGGGGGCCUGGAAGUUUGGACUGGGCAGAGCUCUACACAGCGUGGCAAAGCGGCUGUGGCUAGACUGCCUCCCUGGAUUCCUCGUCACUCAGCAGGGCAUCUCUGAGAGAAAUGCC [G7A A64U U81C U102C] the value was 0.33; for UACGUUGGUGGUUUUCCCCUGAUAGUGCUAAGGGGGCCUGGAAGUCUGGACUGGGCAGAGCUCAACACAGCGUGGCAAAGUGGCUGUGGCCAGACUGCCUCUCUGGAUUCCCCGUCACUCAGCAGGGCAUCUCUGAGGGAAAUGCC [A6U U46C U91C U112C A138G], 0; for UACGUUGGUGGUUUUCCCCUGAUAGUGCUAAGGGGGCCAGGAAGUUUGGACUGGGCAGGGCUCAACACAGCGUGGCGAAGUGGCUGUGGCUAGACUGCCUCUUUGGAUUCCUCGUCACUCAGCAGGGCGUCUCUGAGAGAAAUGCC [A6U U39A A59G A77G C103U A129G], 0.
In the case of UACGUAAGUGGUUUUCCCCUGAUAGUGCUAAGGGGGCCUGGAAGUUUGGACUGGGCAGGGCUCCACACAGCGUGGCAAAGUGGCUGUGGCUAGACUGCCUCUCUGGAUUCCUCGUCACUCAGCAGGGCAUCUCUGAGAGAAAUGCC [G7A A59G A64C], the self-cleavage was 0.03.
UACGUUGGUGGUUUUCCCCUGAUAGUGCUAAGGGGGCCUGGAAGUUUGGACUGGGCAGAGCUCAACACAGCGUGGCAAAGUGGCUGAGGCUAGACUGCCUCUCUGGGUUCCUCGUCUCUCAGCAGGGCAUCUCUGAGAGAAAUGCC [A6U U87A A107G A117U]: the self-cleavage was determined as 0.12.
For UACGUAAGUGGUUUUCCCCUGAAAGUGCUAAGGGGGCCUGGAAGUUUGGACUGGGCAGAGCUCAACACAGCGUGGCAAAGUAGCUGUGGCUAGACUGCCUCUCUGGAUUCCUCGUCACUCAGCAGGGCAUCUCUGAGAGAAAUGCC [G7A U23A G82A], the self-cleavage is 2.1.
Under UACGUAAGUGGCUUUCCCCUGAUAGUGCUAAGGGGGCCUGGAAGUUUGGACUGGGCAGAGCUCAACACAGCGUGGCAAGGUGGCUGUGGCUAGACUGCCUCUCUGGAUUCCUCGUCACUCAGCAGGGCAUCUCUGAGAGAAAUGCC [G7A U12C A79G] stands 0.86; under UACGUUGGUGGUUUUCCCCUGAUAGAGCUAAGAGGGCCUGGAAGUUUGGACUGGGCAGAGCUCAACACAGCGUGGCAAAGUGGCUGUGGCUAGACUGCCUCUCUGGAUUCCUCGUCACUCAGCAGGGCAUCUCUGAGAGAAAUGCC [A6U U26A G33A], 0.72.
In the case of UACGUUGGUGGUUUUCCCCUGAAAGUGCUAGGGGGGCCUGGAAGUUUGGACUGGGCAGAGCUCAACACAGCGUGGCAAGGUGGCUGUGGCUAGACUGCCUCUCUGGAUUCCUCGUCACUCAGCAGGGCAUCUCUGAGAGAAAUGCC [A6U U23A A31G A79G], the self-cleavage came out at 1.31.
Regarding UACGUUGGUGGUGUUCCCCUGAUAGUGCUAAGGGGGCCUGGAAGUUUGGACUGGGCAGAGCACAACACAGCGUGGCAAAGUGGCUGUGGCUAGACUGCCUCUCUGGAUUCCUCGUCACUCAGCAGGGCAUCUCUGAGAGAAAUGCC [A6U U13G U62A], the self-cleavage came out at 0.18.
For the variant UACGUUGGUGGUUUUCCCCUGAUAGUGCUAAGGGGGCCUGGAAGUUUGGACUGGGCAGAGCUCAACACAGCGUGGCAAAGUGGCUGUGGCUAGACUGCCUCUCUGGAUUCCUCGUCACUCAGCAGGGCAUCUCAGAGAGAAUUGCC [A6U U134A A142U], the self-cleavage is 0.72.
As for UACGUUGGUGGUUUUCCCCUGAUAGUGCUAAGGGGGCCCGGAAGUUUGGACUGGGCAGAGCUCAACACAGCGUGGCAAAUUGGCUGUGGCUAGACUGCCUCUCUGGAUUCCUCGUCACUCAGCAGGGCAUCUCUGAGAGAAAUGCC [A6U U39C G80U], the self-cleavage was found to be 1.53.
As to UACGUAAGUGGUUUUCCCCUGAUAGUGCUAAGGGGGCCUGGAAGUUUGGGCUGGGCAGAGCUCAACACAGCGUGGCAAAGUGGCUGUGGCUAGACUGCCUCUCUGGAUUCCCCGUCACUCAGCAGGGCAUCUCUGAGAGAAAUGCC [G7A A50G U112C], the self-cleavage was found to be 0.32.
UACGUAAGUGGUUUCCCCCCGAUAGUGCUAAGGGGGCCUGGAAGUUUGGACUGGGCAGGGCUCAACACAGCGUGGCAAAGUGGCUGUGGCUAAACUGCCUCUCUGGAUUCCUCGUCACUCAGCAGGGCAUCUCUGAGAGAAAUGCC [G7A U15C U20C A59G G93A]: the self-cleavage is 0.05.
Consider UACGUUGGUGGUUUUCCCCUGAUAGUGCUAAGGGGGCCCGGAAGUUUGGACUGGGCAGAGCUCAACACAGCGUGGCAAAGUGGCUGUGGCUAGACUGCCUCUCUGGAUUACUCGUCACUCAGCAGGGCAUCUCUGAGAGAAGUGCC [A6U U39C C110A A142G], for which the self-cleavage worked out at 1.21.
Turning to UACGUAAGUGGUUUUCCCUUGAUAGUGCUAAGGGGGCCUGGAUGUUUGGACUGGGCAGAGCUCAACACAGCGUGGCAAAGUGGCUGUGGCUAGACUGCCUCUCUGGAUUCCUCGUCACUCAGCAGGGCAUCUCUGAGAGAAAUGCC [G7A C19U A43U], the self-cleavage worked out at 0.59.
Turning to UACGUAAGUGGUUUUCCCCUGACAGUGCUAAGGGGGCCUGGAAGUUUGGACUGGGCAGAGCUCAACACAGCGUGGCAAAGUGGCUGUGGCUAGACUGCCUCUCUGGAUUCCCCGUCACUCAGCAGGGCAUCUCUGAGAGAAAUGCC [G7A U23C U112C], the self-cleavage is 1.46.
In the case of UACGUUGGUGGUUUUCCCCAGAUAGUGCUAAGGGGGCCUGGAAGUUUGGACUGGGCAGAGCUCAACACAGCGUGGCAAAGUGGCUGUGGCUAGACUGCCUCUCUGGAUUCCUCGUCACUCAGCAGGGCAUCUCUGAGAGAGAUGCC [A6U U20A A141G], the self-cleavage worked out at 1.71.
For UACGUAAGUGGUUCUCCCCUGAUAGUGCUAAGGGGGCCUGGAAGUUUGGACUGGGCAGAGCUCAACACAGCGUGGCAGAGUGGCUGUGGCUAGACUGCCUCUCUGGAUUCCUCGUCACUCAGCAGGGCAUCUCUGAGGGAAAUGCC [G7A U14C A78G A138G] the value was 1.15.
For UACGUUGGUGGUUUUCCCCUGAUAGCGCUAAGGGGGCCCGGAAGUUUGGUCUGGGCAGAGCUCAACACAGCGUGGCAAAGUGGCUGUGGCUAGACUGCCUCUCUGGAUUCCUCGUCACACUGCAGGGCAUCUCUGAGAGAAAUGCC [A6U U26C U39C A50U U119A A121U] the value was 0.31.
Turning to UACGUAAGUGGUCUUCCCCUGAUAGUGCUAAGGGGGCCUGGAAGUUUGGACUGGGCAGAGCCCAACACAGCGUGGCGAAGUGGCUGUGGCUAGACUGCCUCUCUGGAUUCCUCGUCACUCAGCAGGGCAUCUCUGAGAGAAAUGCC [G7A U13C U62C A77G], the self-cleavage was found to be 0.13.
For the variant UACGUAAGUGGUUUUCCCCUGAUAAUGCCAAGGGGGCCUGGAAGUUUGGACUGGGCGGAGCUCAACACAGCGUGGCAAAGUGGCUGUGGCUAGACUGCCUCUCUGGAUUCCUCGUCACUCAGCAGGGCAUCUCUGAGAGAAAUGCC [G7A G25A U29C A57G], the self-cleavage is 0.33.
For the variant UACGUUGGUGGUUUCCCCCCGAUAGUGCUAAGGGGGCCUGGAAGUUUGGACUGGGCAGAGCUCAACACAGCGUGGCAAAGUGGCUGUGGCUAGACUGCCUCUCUGGAUUCCUCGUCACUCAGCAGGGCAUCUCAGAGAGAAAUGCC [A6U U15C U20C U134A], the self-cleavage turned out to be 1.08.
As for UACGUAAGUGGUUUUCCCCUGGUAGUGCUAAGGGGGCCUGGAAGUUUGGACUGGGCAGAGCUCUACACAGCGUGGCAAAGUGGCUGUGGCUAGACUGCCUCUCUGGAUUCCUCGUCACUCAGCAGGGCAUCUCUGAGAGAAAUGCC [G7A A22G A64U], the self-cleavage is 0.53.
In the case of UACGUAAGUGGUUUUCCCCUGAUAGUGCUAAGGGGGCCUGGAAGUUUGUACUGGGCAGAGCUCAACACGGCGUGGCAAAGUGGCUAUGGCUAGACUGCCUCUCAGGAUUCCUCGUCACUCAGCAGGGCAUCUCUGAGAGAAAUGCC [G7A G49U A69G G86A U104A], the self-cleavage amounted to 0.01.

The values are drawn from the RNAGym collection of RNA variant scans (doi:10.7554/elife.90254).
